Measurements published in PubChem BioAssay AID1645887 (National Center for Advancing Translational Sciences (NCATS), 2021).
Values joined by “and” are separate entries in the source; they are usually repeats but may differ in a detail not shown here. Equal entries are not always repeated. Out of some 16,000 compounds screened, about 40 (0.2%) were called active. Inconclusive results (about 1%) are left out. The call rests on the fitted dose curve; in most records, active means well fitted activation curve with a large enough effect; inconclusive means small, poorly fitted or top-dose-only effect, or another doubt; inactive means no such curve, though single readings can be large or run the other way. Some of the results follow.

The compounds below were run against Rap guanine nucleotide exchange factor 4 (Homo sapiens) (UniProt Q8WZA2) (assay: Validation qHTS for agonist of cAMP-regulated guanine nucleotide exchange factor 4 (EPAC2)). Conditions: EPAC2 Rap1B BODIPY-GDP exchange, fluorescence; activation: stronger effect = higher value.
Method in brief: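 Signal normalized against 6.5 mM cAMP as agonist control. Mix of EPAC2 (100 nM), RAP1B-BODIPY-GDP (250 nM) and GDP (50 uM) was read kinetically at 480/540 nm, every 5 min over 30 min, after 5 min room-temperature incubation with compound.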
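Further: exchange makes BODIPY-GDP fluorescence drop when released from Rap1B; series mostly up to about 150 µM.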
On the % scale 0 is the no-effect control and ±100 the full control effect.

Sequence of UniProt Q8WZA2 (Q8WZA2 whole entry, looked up): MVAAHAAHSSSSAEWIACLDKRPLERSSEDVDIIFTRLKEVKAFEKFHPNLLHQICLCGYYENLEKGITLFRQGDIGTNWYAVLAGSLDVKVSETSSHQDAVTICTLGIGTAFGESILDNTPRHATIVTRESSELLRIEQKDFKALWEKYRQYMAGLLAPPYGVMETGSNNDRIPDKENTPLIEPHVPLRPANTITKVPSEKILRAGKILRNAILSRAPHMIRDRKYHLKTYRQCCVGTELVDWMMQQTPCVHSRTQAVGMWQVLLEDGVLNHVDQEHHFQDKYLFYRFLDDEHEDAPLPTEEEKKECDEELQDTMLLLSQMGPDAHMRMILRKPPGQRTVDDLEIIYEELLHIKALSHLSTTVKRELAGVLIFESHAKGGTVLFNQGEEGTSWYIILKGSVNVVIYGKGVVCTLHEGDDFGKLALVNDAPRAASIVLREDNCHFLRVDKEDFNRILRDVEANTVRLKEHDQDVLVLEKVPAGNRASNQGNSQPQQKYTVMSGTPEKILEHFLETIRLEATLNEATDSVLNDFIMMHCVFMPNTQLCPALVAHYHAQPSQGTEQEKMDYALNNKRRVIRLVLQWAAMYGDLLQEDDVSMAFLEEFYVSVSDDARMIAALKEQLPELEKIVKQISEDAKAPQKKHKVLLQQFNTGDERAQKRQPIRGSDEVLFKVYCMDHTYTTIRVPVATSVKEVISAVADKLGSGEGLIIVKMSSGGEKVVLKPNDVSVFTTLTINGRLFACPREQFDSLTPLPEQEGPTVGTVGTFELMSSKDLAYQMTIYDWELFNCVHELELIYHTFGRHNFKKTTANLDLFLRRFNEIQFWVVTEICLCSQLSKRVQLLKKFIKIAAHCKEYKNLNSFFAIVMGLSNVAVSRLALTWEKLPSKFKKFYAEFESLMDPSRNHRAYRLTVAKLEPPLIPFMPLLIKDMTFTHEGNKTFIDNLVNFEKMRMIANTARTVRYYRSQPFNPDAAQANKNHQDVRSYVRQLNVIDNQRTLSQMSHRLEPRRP

activation, inactive:
COc1ccc2[nH]cc(CCNc3ccnc(-c4c(C)noc4C)n3)c2c1 0.121%, OC(CN1CCCCC1)c1ccccc1 (stereo unspecified) -22.8%, COC(=O)C1=C(C)NC(C)=C(C(=O)OCCSc2ccccc2)[C@@H]1C -10.9%, CCC(C)c1ccc(O[C@@H]2O[C@H](CO)[C@@H](O)[C@H](O)[C@H]2NC(C)=O)cc1 (stereo partly specified) -1.57%, O=c1c(-c2ccc(F)cc2)nc2cncnc2n1-c1ccccc1 -9.95%, N[C@H](C(=O)O)[C@H]1C[C@@H]1C(=O)O -0.0093% and -5.02%, CCOC(=O)C1=C(C)NC(c2ccccc2)=C(C(=O)OCc2ccc([N+](=O)[O-])cc2)[C@@H]1C#Cc1ccccc1 -7.05%, Cc1nc2cnc(Nc3ccccc3)nc2n(C[C@H]2CCCO2)c1=O -3.96%, CC(=O)Nc1cccc(O)c1 -8.84%, Cc1cnc(C(=O)O)c[n+]1[O-] -12% and -16.7%, O=C(Nc1ccccc1)[C@@H]1CC=C[C@@H]2CCN(Cc3ccccc3)C(=O)[C@@H]21 -35.5%, COc1ccc2c(c1)C[C@]1(C)c3ccccc3C(=O)N(Cc3ccccc3)[C@H]21 -9.94%, C[C@@]12CCC[C@H]1C1CC[C@H]3C[C@H](O)CC[C@]3(C)C1CC2 (stereo partly specified) -5.95%, O=c1c(O)c(-c2ccc(O)c(O)c2)oc2cc(O)cc(O)c12 -11.4% [middle of 7 runs], CCOC(=O)C1=C(O)C(=O)N(Cc2ccccc2)C1 -15.9%, O=C1CCC[C@@H]2Cc3nc4ccc(O)cc4cc3[C@@H]3CCN1[C@H]23 -26.2%, CN=C(N)NC(=O)Nc1c(C)cccc1C -9.47%, CC(=O)c1ccc(-c2cc(F)cc3c2OC(CNC(=O)Cc2cn4ccsc4n2)C3)s1 (stereo unspecified) -3.23%, COc1ccc(Oc2ncc3nc(-c4ccc(Cl)cc4)c(=O)n(CCC#N)c3n2)cc1 -5.24%, CC1=CC(=O)[C@@H]2C[C@H]1C2(C)C -3.15%, O=C(c1cccc(F)c1)N1CCC2(CCCN(c3cccc(-c4ccccc4)c3)C2)CC1 3.3%, CCNc1ncc2nc(-c3cccs3)c(=O)n(-c3ccccc3)c2n1 4.31%, COc1ccc2c(=O)c(-c3ccccc3)coc2c1 -1.34%, CC(=O)NCCNc1ncnc2ccc(-c3ccccc3Cl)cc12 -8.52%, O=C(NCCc1ccccn1)c1cnn(-c2ncc3c(n2)-c2ccccc2CC3)c1C1CC1 4.5%, COC(=O)[C@@H]1[C@H]2C[C@H]3c4[nH]c5ccccc5c4CCN3C[C@H]2CC[C@@H]1O -15%, COC(=O)CC1C(C)(C)C(OC(C)=O)[C@@]2(O)C=C3C4CC(=O)OC(c5ccoc5)[C@]4(C)CCC3[C@@]1(C)C2=O (stereo partly specified) -14%, O=C1[C@H]2[C@H](C=CC[C@H]2C(=O)N2CCOCC2)CCN1Cc1ccccc1 -23.9%, CN(C)c1ccc(-c2ccc3ncnc(NCc4ccccc4)c3c2)cc1 -21.7%, C[C@@H]1CCC2C(C)(C)C3CC21CC[C@@]3(C)O (stereo partly specified) -4.48%, O=C(C[C@H]1C(=O)N(C2CCCCC2)C[C@@H]1Cc1ccccc1)Nc1ccccc1 -12.8%, CSc1ncccc1C(=O)NCC1Cc2cc(F)cc(-c3cncnc3)c2O1 (stereo unspecified) -15.6%, COc1ccc(-c2cn(Cc3ccc4c(c3)C(=O)c3ccccc3C4=O)nn2)cc1 6%, COCCn1c(=O)cnc2cnc(N3CCN(C)CC3)nc21 9.03%, COc1ccccc1CN1CCCC2(CCN(C(=O)c3cccc(F)c3)CC2)C1 -21.1%, CC(C)C[C@@H](CN=[N+]=[N-])N1CCN(CCc2ccccc2)CCC1=O 9%, COc1ccc(CN2CCOc3ccc(C(O)c4cccnc4)cc3C2)c(F)c1 (stereo unspecified) -2.95%, CN(C)Cc1ccccc1-c1nccc(Nc2ccc(F)cc2)n1 -2.75%, NCc1ccc(S(N)(=O)=O)cc1 -17.8% and -14.5%, O=C1/C(=C\c2cccs2)CCC/C1=C\c1cccs1 6.67%, Cc1cc[n+](CC(=O)c2ccc(F)cc2)c2ccccc12 -13.2%, COCCNc1ccnc(-c2c(C)noc2C)n1 -21.8%, O=C1OC2(c3ccccc31)c1cc(Br)c(O)c(Br)c1Oc1c2cc(Br)c(O)c1Br -13.1%, c1ccc2oc(C3=NCCN3)cc2c1 -17.5%, COC(=O)c1ccccc1-c1cc(C)cc2c1OC(CNC(=O)c1cc(C)n(C)n1)C2 (stereo unspecified) 4.71%, CCc1oc2ccccc2c1C(=O)c1cc(Br)c(O)c(Br)c1 -35.4%, CCCCN1CC[C@H]2C=CC[C@@H](C(=O)Nc3ccc(Cl)c(C(F)(F)F)c3)[C@H]2C1=O -10.4%, COc1cccc(Cn2c(=O)c(C)nc3cnc(N4CCOCC4)nc32)c1 1.39%, COc1cc(-c2ccc(C(F)(F)F)cn2)cc2c1OCCN(S(=O)(=O)C[C@]13CC[C@H](CC1=O)C3(C)C)C2 -5.51%, Cc1cccc(CNc2ncnc3ccc(-c4ccccc4C#N)cc23)c1 -12.3%, CC(=C(CCOC(=O)C(C)C)SSC(CCOC(=O)C(C)C)=C(C)N(C=O)Cc1cnc(C)nc1N)N(C=O)Cc1cnc(C)nc1N 14.4%, CC(C)C[C@@H](CO)N(Cc1ccccc1)S(=O)(=O)N(Cc1ccccc1)[C@H](CO)CC(C)C -10.8%, COC(=O)C(N)Cc1ccc(Cl)cc1 (stereo unspecified) -21.7%, C[C@@H]1[C@H](c2ccccc2)OCCS(=O)(=O)N1Cc1ccc(F)cc1 -1.91%, O=Cc1ccc(I)cc1 -16.5%, O=C(O)C(O)[C@@](O)(Cc1ccc(O)cc1)C(=O)O (stereo partly specified) -7.12%, CCC1CN(CCNC(=O)c2cc(C)nn2CC)Cc2cc(OC)ccc2O1 (stereo unspecified) -8.87%, O=C(c1cnccn1)N1CCC2(CCCN(c3ccc(-c4ccccc4)cc3)C2)CC1 -24.9%, C=C(c1ccc(C(=O)O)cc1)c1cc2c(cc1C)C(C)(C)CCC2(C)C -7.18%, C#C[C@]1(O)CC[C@H]2[C@@H]3CCC4=C(CCC(=O)C4)[C@H]3CC[C@@]21C -7.58%, O=C(Nc1cc(C(=O)N2CCN(CCO)CC2)c2c(c1)ncn2C1CCCC1)c1ccccc1 -2.25%, COc1ccc(NC(=O)N2CCCC3(CCN(C(=O)c4cnccn4)CC3)C2)cc1 -10.2%, COc1ccc(Oc2ncc3nc(-c4cccs4)c(=O)n(Cc4cccs4)c3n2)cc1 -17.1%, CC(CN1c2ccccc2Sc2ccc(S(=O)(=O)N(C)C)cc21)N(C)C (stereo unspecified) -29.4%, Cc1nc(NCc2cnn(C)c2)sc1-c1ccn(-c2cccc(F)c2)n1 -14.3%, CC[N+](CC)(CC)CCOc1cccc(OCC[N+](CC)(CC)CC)c1OCC[N+](CC)(CC)CC -2.24% and -39.1%, COc1cc(=O)n2c(c1C(=O)NCc1ccco1)CCN(Cc1ccc(F)cc1Cl)CC2 -0.201%, CCN(CC)c1ccccc1/C=C/[n+]1ccc(CCCCI)c2ccccc21 -41.3%, CC(C)(C)NCC(O)c1cc(O)cc(O)c1 (stereo unspecified) 7.45% and 11.3% and 10.6%, NS(=O)(=O)c1cc2c(cc1Cl)NC(CC1CCCC1)NS2(=O)=O (stereo unspecified) -8.89%, Cc1ccc(C)c(CN2C[C@H](Sc3nc4ccccc4[nH]3)C[C@H]2C(=O)N2CCCN(C)CC2)c1 10.1%, O=C(O)C1CC[C@@](C(=O)O)(c2ccccc2)c2ccccc21 (stereo partly specified) 0.368%, COc1cc(/C(C)=C/c2ccccc2)c2c(c1)oc1ccccc12 -19%, COc1ccc(-c2nc3cnc(N4CCNCC4)nc3n(CCc3ccccc3)c2=O)cc1 -0.925%, C[C@@H]1CN(Cc2ccc3c(c2)CN(C(=O)CCc2nc4ccc(F)cc4[nH]2)CCO3)C[C@H](C)O1 0.162%, CC(C)[C@H](N)C(=O)OCC(CO)OCn1cnc2c(=O)[nH]c(N)nc21 (stereo partly specified) -2.58%, CCC1COCCS(=O)(=O)N1Cc1ccccc1 (stereo unspecified) -25.9%, COCC(=O)N1CCC2(CC1)CCN(c1cccc(-c3ccccc3)c1)CC2 4.89%, COc1ccc(F)c(CN2CCOc3ccc(CN4CCC(Oc5cccnc5)CC4)cc3C2)c1 -7.47%, CCC1CN(CCNC(=O)C(C)(C)O)Cc2cc(OC)ccc2O1 (stereo unspecified) -6.09%, C=CC(C)(O)CCCC(C)CCCC(C)CCCC(C)C (stereo unspecified) -34.6%, OC[C@H]1NC[C@H](O)[C@@H](O)[C@H]1O -2.39%, CN1CCC[C@@H]1CCO[C@](C)(c1ccccc1)c1ccc(Cl)cc1 -41.4% and -4.86%, Clc1cccc[n+]1CCCCCC[n+]1ccccc1Cl -33.3%, CCOc1ccc(NC(C)=O)cc1 -4.28% and -8.11%, COc1cc2ncnc(Nc3ccc(F)c(Cl)c3)c2cc1OCCCN1CCOCC1 -11.9%
